Measured values from PubChem BioAssay AID588453 (National Center for Advancing Translational Sciences (NCATS), 2011).
Among all 390,000 compounds or so, about 4,000 (1%) were called active. This list was built around the results that the source calls inconclusive (neither active nor inactive); the mix of calls is not that of the screen. Calls come from the whole dose curve; as a rule, active = well fitted inhibition curve with a large enough effect; inconclusive = small, poorly fitted or top-dose-only effect; inactive = no such curve, though single readings can be large or run the other way. A potency beside an inconclusive call is a rough fit, not a confirmed value.

Target: Thioredoxin reductase 1, cytoplasmic (Rattus norvegicus) (UniProt O89049)
Assay: qHTS Assay for Inhibitors of Mammalian Selenoprotein Thioredoxin Reductase 1 (TrxR1): qHTS; note: nearly all actives have a fitted effect of over 65% in size
Details: recombinant rTrxR1, NADPH fluorescence consumption, selenite substrate; series mostly up to 114 µM; activity change, negative = inhibition: at the top concentration
Method in brief: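 Rat TrxR1 (90 nM in the dispensed reagent) was pre-reduced with 400 uM NADPH for 5 min at room temperature, then incubated with compound for 15 min. After 400 uM selenite was added, NADPH fluorescence (Ex 340/Em 450 nm) was followed for 8 min.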
% is set by controls: 0 for no effect and ±100 for the full control effect; potency is the fitted concentration of half-maximal effect; tags give direction and shape of the fitted curve.

Sequence of UniProt O89049 (O89049 whole entry, looked up): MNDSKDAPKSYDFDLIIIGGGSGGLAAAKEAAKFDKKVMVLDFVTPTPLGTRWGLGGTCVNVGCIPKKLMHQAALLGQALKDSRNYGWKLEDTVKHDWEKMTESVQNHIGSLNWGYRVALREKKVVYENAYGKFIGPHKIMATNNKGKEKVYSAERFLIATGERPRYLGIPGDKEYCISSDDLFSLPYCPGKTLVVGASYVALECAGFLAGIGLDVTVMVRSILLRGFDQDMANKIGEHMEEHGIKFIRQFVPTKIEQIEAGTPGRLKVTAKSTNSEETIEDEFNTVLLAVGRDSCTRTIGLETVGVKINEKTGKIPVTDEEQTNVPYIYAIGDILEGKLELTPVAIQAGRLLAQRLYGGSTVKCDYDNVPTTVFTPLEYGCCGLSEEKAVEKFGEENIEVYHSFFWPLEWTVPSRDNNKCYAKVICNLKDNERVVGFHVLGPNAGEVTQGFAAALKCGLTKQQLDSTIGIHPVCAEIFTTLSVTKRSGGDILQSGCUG

For `CCCOc1ccc(C(=O)NNC(=S)NC(=O)CC)cc1`, which Potency is on record?
The Potency was inconclusive: 39.8 µM [inhibitor, partial curve, poor fit].

For `COc1ccc(CCN2CCC(CN3C(=S)NC[C@@H]3CC(C)C)CC2)cc1OC`, which “activity change, negative = inhibition” value is on record?
Its value is inactive: 8.36%.

`O=C(Cn1c2ccccc2c2nc3n(c(=O)c21)CCS3)Nc1ccccc1C(F)(F)F` was tested. Which “activity change, negative = inhibition” value did it give?
The value was inactive: 9.46% [at 57.1 µM].

For `CCc1nnc(NS(=O)(=O)c2ccc(NC(=S)NC(=O)/C=C/c3cccs3)cc2)s1`, which Potency is on record?
Its Potency is inconclusive: 14.1 µM [inhibitor, single point].

With `CSc1cccc(NC(=O)c2ccc3c(c2)c(C)c(C)n3Cc2ccc(F)cc2)c1` as the compound, how does the “activity change, negative = inhibition” value read?
The value was inactive: 34.5% [at 57.1 µM].

How did the Potency turn out when `Cc1cc2cc(CN(Cc3ccco3)S(=O)(=O)c3c(C)ccc4nsnc34)c(=O)[nH]c2cc1C` was run?
The Potency was inconclusive: 17.8 µM [inhibitor, partial curve].

`N#CC1=C(N)SC(N)=C(C#N)C1CCc1ccccc1` was tested. Which Potency did it give?
The Potency was inconclusive: 25.1 µM [inhibitor, partial curve].

Which Potency does the source give for `CC1CCN(c2ccccc2NC(=O)c2ccc(C#N)cc2F)CC1` here?
Its Potency is inconclusive: 79.4 µM [inhibitor, partial curve, poor fit].

`Cc1c(OC(=O)c2ccc([N+](=O)[O-])cc2)c2c(c[n+]1C)COC(C)(C)OC2` was tested. Which Potency did it give?
Its Potency is active: 44.7 µM.

For `O=S(=O)(Nc1ccc(Cl)cc1)c1ccc(N2CCOCC2)c(NC(=S)NC2CC2)c1`, which Potency is on record?
The Potency was inconclusive: 15.8 µM [inhibitor, full curve].

How did the Potency turn out when `CCOc1ccc(Nc2ncnc(N)n2)cc1` was run?
The Potency was inconclusive: 89.1 µM [inhibitor, single point].

For `NC(=S)NN=C1c2cc(OCCN3CCOCC3)ccc2-c2ccc(OCCN3CCOCC3)cc21`, which “activity change, negative = inhibition” value is on record?
The value was inactive: -1.27% [at 57.1 µM].

How did the “activity change, negative = inhibition” value turn out when `CC(=O)N1CCc2cc(S(=O)(=O)CCC(=O)N3CCN(c4cc(C)ccc4C)CC3)ccc21` was run?
Its value is inactive: 31.8%.

With `CC(=O)N1CCN(C(=O)c2ccc(-c3cccc(C(F)(F)F)c3)o2)CC1` as the compound, how does the Potency read?
The Potency was active: 39.8 µM.

How did the Potency turn out when `O=C(CSc1nc(-c2ccco2)cc(C(F)(F)F)n1)NCC1CCCO1` (centres undefined) was run?
Its Potency is inconclusive: 79.4 µM [inhibitor, single point].

For `O=C(CN1C(=O)COc2ccc(Cl)cc21)N1CCc2ccccc21`, which Potency is on record?
Its Potency is inconclusive: 10 µM [inhibitor, partial curve, poor fit].

`COc1ccccc1NC(=S)NC(NC(=O)c1ccco1)C(Cl)(Cl)Cl` (centres undefined) was tested. Which Potency did it give?
The Potency was inconclusive: 20 µM [inhibitor, partial curve, poor fit].

For `Nc1nonc1-n1nnc(C(=O)N/N=C/c2cc(Br)cs2)c1-c1ccccc1`, which “activity change, negative = inhibition” value is on record?
Its value is inactive: 6%.

How did the Potency turn out when `O=C(NC1CC1)C1=C[C@@H](c2coc3ccccc3c2=O)C[C@@H](OCCCCO)O1` was run?
The Potency was inconclusive: 44.7 µM [inhibitor, partial curve].
